Sequences and labels used below:
T1: RBFOX1 RRM (Homo sapiens, UniProt Q9NWB1 109-208)
T1 sequence: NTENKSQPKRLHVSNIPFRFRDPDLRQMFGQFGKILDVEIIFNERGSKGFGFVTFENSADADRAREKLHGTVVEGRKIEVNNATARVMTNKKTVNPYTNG

B1: CCCUGGC (DNA:RNA)
RNA: GGGAGACCGGAAUUCAGAUUGUCCCCCUGGCUUAAAUCCCGUCGUAGCCACCA
DNA 1: CAATCTGAATTCCGGTCTCCC
DNA 2: TGGTGGCTACGACGGGATT
B2: AUAGGCC (DNA:RNA)
RNA: B1 RNA with C25A, C26U, C27A, U28G, G30C
DNA 1: CAATCTGAATTCCGGTCTCCC
DNA 2: TGGTGGCTACGACGGGATT
B3: AUCCUCA (DNA:RNA)
RNA: B1 RNA with C25A, C26U, U28C, G29U, G30C, C31A
DNA 1: CAATCTGAATTCCGGTCTCCC
DNA 2: TGGTGGCTACGACGGGATT
B4: GCUCUGU (DNA:RNA)
RNA: B1 RNA with C25G, C27U, U28C, G29U, C31U
DNA 1: CAATCTGAATTCCGGTCTCCC
DNA 2: TGGTGGCTACGACGGGATT
B5: AAGAUCG (DNA:RNA)
RNA: GGGAGACCGGAAUUCAGAUUGUCCAAGAUCGUUAAAUCCCGUCGUAGCCACCA
DNA 1: CAATCTGAATTCCGGTCTCCC
DNA 2: TGGTGGCTACGACGGGATT
B6: GCCCCGU (DNA:RNA)
RNA: B1 RNA with C25G, U28C, G29C, C31U
DNA 1: CAATCTGAATTCCGGTCTCCC
DNA 2: TGGTGGCTACGACGGGATT
B7: GUUGGUU (DNA:RNA)
RNA: B1 RNA with C25G, C26U, C27U, U28G, G30U, C31U
DNA 1: CAATCTGAATTCCGGTCTCCC
DNA 2: TGGTGGCTACGACGGGATT
B8: CCACGUG (DNA:RNA)
RNA: B1 RNA with C27A, U28C, G30U, C31G
DNA 1: CAATCTGAATTCCGGTCTCCC
DNA 2: TGGTGGCTACGACGGGATT
B9: GUGCGAC (DNA:RNA)
RNA: B1 RNA with C25G, C26U, C27G, U28C, G30A
DNA 1: CAATCTGAATTCCGGTCTCCC
DNA 2: TGGTGGCTACGACGGGATT
B10: AUGCUAA (DNA:RNA)
RNA: B5 RNA with A26U, A28C, C30A, G31A
DNA 1: CAATCTGAATTCCGGTCTCCC
DNA 2: TGGTGGCTACGACGGGATT
B11: CCGUACU (DNA:RNA)
RNA: B1 RNA with C27G, G29A, G30C, C31U
DNA 1: CAATCTGAATTCCGGTCTCCC
DNA 2: TGGTGGCTACGACGGGATT
B12: UUCUGUG (DNA:RNA)
RNA: B1 RNA with C25U, C26U, G30U, C31G
DNA 1: CAATCTGAATTCCGGTCTCCC
DNA 2: TGGTGGCTACGACGGGATT
B13: AGUCUCU (DNA:RNA)
RNA: B5 RNA with A26G, G27U, A28C, G31U
DNA 1: CAATCTGAATTCCGGTCTCCC
DNA 2: TGGTGGCTACGACGGGATT
B14: CGUCAUU (DNA:RNA)
RNA: B1 RNA with C26G, C27U, U28C, G29A, G30U, C31U
DNA 1: CAATCTGAATTCCGGTCTCCC
DNA 2: TGGTGGCTACGACGGGATT
B15: UACAGUU (DNA:RNA)
RNA: B5 RNA with A25U, G27C, U29G, C30U, G31U
DNA 1: CAATCTGAATTCCGGTCTCCC
DNA 2: TGGTGGCTACGACGGGATT
B16: UUUAGCA (DNA:RNA)
RNA: B5 RNA with A25U, A26U, G27U, U29G, G31A
DNA 1: CAATCTGAATTCCGGTCTCCC
DNA 2: TGGTGGCTACGACGGGATT
B17: UGGCAUU (DNA:RNA)
RNA: B5 RNA with A25U, A26G, A28C, U29A, C30U, G31U
DNA 1: CAATCTGAATTCCGGTCTCCC
DNA 2: TGGTGGCTACGACGGGATT
B18: ACGGCAG (DNA:RNA)
RNA: B5 RNA with A26C, A28G, U29C, C30A
DNA 1: CAATCTGAATTCCGGTCTCCC
DNA 2: TGGTGGCTACGACGGGATT
B19: UAUUUGG (DNA:RNA)
RNA: B5 RNA with A25U, G27U, A28U, C30G
DNA 1: CAATCTGAATTCCGGTCTCCC
DNA 2: TGGTGGCTACGACGGGATT
B20: CACUACC (DNA:RNA)
RNA: B1 RNA with C26A, G29A, G30C
DNA 1: CAATCTGAATTCCGGTCTCCC
DNA 2: TGGTGGCTACGACGGGATT
B21: UUAAGCA (DNA:RNA)
RNA: B5 RNA with A25U, A26U, G27A, U29G, G31A
DNA 1: CAATCTGAATTCCGGTCTCCC
DNA 2: TGGTGGCTACGACGGGATT
B22: GCUACUA (DNA:RNA)
RNA: B5 RNA with A25G, A26C, G27U, U29C, C30U, G31A
DNA 1: CAATCTGAATTCCGGTCTCCC
DNA 2: TGGTGGCTACGACGGGATT
B23: AUAAGCU (DNA:RNA)
RNA: B5 RNA with A26U, G27A, U29G, G31U
DNA 1: CAATCTGAATTCCGGTCTCCC
DNA 2: TGGTGGCTACGACGGGATT
B24: UGCUAGC (DNA:RNA)
RNA: B1 RNA with C25U, C26G, G29A
DNA 1: CAATCTGAATTCCGGTCTCCC
DNA 2: TGGTGGCTACGACGGGATT
B25: ACCCGGC (DNA:RNA)
RNA: B1 RNA with C25A, U28C
DNA 1: CAATCTGAATTCCGGTCTCCC
DNA 2: TGGTGGCTACGACGGGATT
B26: CAUAGCA (DNA:RNA)
RNA: B5 RNA with A25C, G27U, U29G, G31A
DNA 1: CAATCTGAATTCCGGTCTCCC
DNA 2: TGGTGGCTACGACGGGATT
B27: AGUGGUC (DNA:RNA)
RNA: B1 RNA with C25A, C26G, C27U, U28G, G30U
DNA 1: CAATCTGAATTCCGGTCTCCC
DNA 2: TGGTGGCTACGACGGGATT
B28: GUGGAUC (DNA:RNA)
RNA: B5 RNA with A25G, A26U, A28G, U29A, C30U, G31C
DNA 1: CAATCTGAATTCCGGTCTCCC
DNA 2: TGGTGGCTACGACGGGATT
B29: CGCGUAU (DNA:RNA)
RNA: B1 RNA with C26G, U28G, G29U, G30A, C31U
DNA 1: CAATCTGAATTCCGGTCTCCC
DNA 2: TGGTGGCTACGACGGGATT
B30: UGUCGUA (DNA:RNA)
RNA: B1 RNA with C25U, C26G, C27U, U28C, G30U, C31A
DNA 1: CAATCTGAATTCCGGTCTCCC
DNA 2: TGGTGGCTACGACGGGATT
B31: CAGCUAC (DNA:RNA)
RNA: B5 RNA with A25C, A28C, C30A, G31C
DNA 1: CAATCTGAATTCCGGTCTCCC
DNA 2: TGGTGGCTACGACGGGATT

Changes are numbered by the printed parent chain; changes in the protein carry UniProt numbers. The list shows a part of the results.

For this assay, the target named is T1, RBFOX1 RRM. The assay can be described thus: EMSA; HiTS-Eq, 1 nM pool, 10 min; buffer printed only for the single-RNA assays: 10 mM Tris pH 7.5, 150 mM NaCl, 3.4 mM EDTA, 0.001% NP-40, 30 C. Conditions: tags: His6 N-terminal (pET28a); label: 5' 32P. Put shortly: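 Purified wild-type or mutant RbFox RRM at increasing concentrations was equilibrated with 1 nM of 5′-radiolabelled RNA carrying 7 randomized nucleotides for 10 min in 50 µL. Unbound RNA was separated by 8% native PAGE and sequenced. Relative association constants came from read-count changes of each RNA species compared with the control reaction, normalised to the cognate motif.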
B1: the binding signal was 0.011 KA relative to UGCAUGU. The figure for B2 is 0.0113 KA relative to UGCAUGU; for B3 it is 0.0013 KA relative to UGCAUGU. Turning to B4, the binding signal is 0.0217 KA relative to UGCAUGU. Under B5 stands 0.00962 KA relative to UGCAUGU; under B6, 0.00966 KA relative to UGCAUGU.

As to B7, the binding signal was 0.028 KA relative to UGCAUGU. Regarding B8, the binding signal was 0.00523 KA relative to UGCAUGU.

Turning to B9, the binding signal is 0.00787 KA relative to UGCAUGU.

B10: the binding signal is 0.00584 KA relative to UGCAUGU. Take B11: the binding signal is 0.00471 KA relative to UGCAUGU. The figure for B12 is 0.0272 KA relative to UGCAUGU; for B13 it is 0.00785 KA relative to UGCAUGU; for B14 it is 0.0039 KA relative to UGCAUGU.

With B15, the binding signal was 0.00538 KA relative to UGCAUGU.

Turning to B16, the binding signal is 0.0109 KA relative to UGCAUGU. The figure for B17 is 0.0198 KA relative to UGCAUGU; for B18 it is 0.0109 KA relative to UGCAUGU.

As for B19, the binding signal is 0.0139 KA relative to UGCAUGU. Under B20 stands 0.00251 KA relative to UGCAUGU; under B21, 0.00809 KA relative to UGCAUGU; under B22, 0.00943 KA relative to UGCAUGU.

Regarding B23, the binding signal is 0.00275 KA relative to UGCAUGU. The figure for B24 is 0.0249 KA relative to UGCAUGU; for B25 it is 0.00693 KA relative to UGCAUGU; for B26 it is 0.00839 KA relative to UGCAUGU. Under B27 stands 0.0167 KA relative to UGCAUGU. Under B28 stands 0.0227 KA relative to UGCAUGU; under B29, 0.00781 KA relative to UGCAUGU; under B30, 0.0167 KA relative to UGCAUGU. B31: the binding signal was 0.00539 KA relative to UGCAUGU.

For the origin of these results see publication PMC9911399, “Two distinct binding modes provide the RNA-binding protein RbFox with extraordinary sequence specificity”.
